# Source: the supplement of paper PMC11417369
# ± gives the standard deviation of the averaged measurements. This is one part of the list.
# Test system: PfAP2-I AP2 domain 3 (GST-tagged)
# Assay: gcPBM binding intensity (ln(normalized median fluorescence intensity)); higher = stronger DNA binding
# Procedure, shortened: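 Plasmodium falciparum DNA-binding domains carrying a GST tag were expressed in E. coli and applied for 1 h, at about 25 μg on average, to an Agilent 4 × 180k array. The array held primer-extended double-stranded 36-bp intergenic genomic probes together with negative controls, and binding took place in 1× PBS with 1% milk, 0.2 mg/ml BSA, 0.5% salmon testes DNA and 0.03% Triton X-100. An Alexa488 anti-GST antibody detected bound protein, and the array was scanned at 488 nm. Binding intensity is taken as the highest Masliner-normalised natural-log median intensity across replicate spots of either probe orientation.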
row,Sequence,gcPBM binding intensity (ln)
1,AAACATTTACTATATTGTACTTAAGATCTTATCGTA [XGTACX_site3919],7.62 ± 0.57
2,TATTTTAACATGTTTTCAAAAATAAAACATATAAAT [CACACA_negctrl_site1598],7.4 ± 0.35
3,GAACTTTACAACCCAACACACAAAAAAGAAAAGAAA [CACACA_site1717],7.87 ± 0.46
4,ATATGTTCATTTAAAAGTACTTAATATAACATTTTT [XGTACX_site3332],7.6 ± 0.44
5,AATAGGAAAAGAAAAGCACACACATAAATAAATATA [CACACA_site8062],8.14 ± 0.41
6,ATTGGTGTATGTTTATGTACTTATCACAATTATGAA [XGTACX_site7055],7.96 ± 0.37
7,TATGCTTTGATGAAGACACACATATAGAAGCGTATT [CACACA_site1925],7.64 ± 0.59
8,CGCCCACAGATATATACACACATATATAAATAAATA [CACACA_site6877],7.83 ± 0.49
9,TACTTTTATAAAAATTGTACAAAAAAAAAAAAAAAA [XGTACX_site2266],8.15 ± 0.69
10,TATGTTATAAAATATATATTATAATATGTATATATA [XGTACX_negctrl_site233],7.68 ± 0.16
11,AAAACTATTTCTTTCAGTACATATTTGGACTTATAT [XGTACX_site4977],7.59 ± 0.42
12,ATAATAAGCAGACACACACACACAAAAAAAAAAAAA [CACACA_site6477],8.06 ± 0.52
13,ATATAAATTTAATACACACCCAAAAAAAAAAAAAAA [CACACA_site3750],8.23 ± 0.46
14,TAAATAAATACATACACACACATACAGATATATATA [CACACA_site5690],7.83 ± 0.7
15,ATTAAAACACAATATTCACACATGTATATTATATAT [CACACA_site5191],7.72 ± 0.51
16,TTAACATACACTCTAGTGCATATATATAACAAAATA [GTGCAC_site9724],10 ± 0.17
17,AATTTAAATCTTCAAAGTACTAAAAAAAAAAATAAT [XGTACX_site8566],7.88 ± 0.57
18,AAACGATTAATGTGTACACACATAGTTATAAACATA [CACACA_site7073],7.95 ± 0.23
19,TTATAAAATATTTTTTGTACACATAATAGTAAGACT [XGTACX_site933],8.03 ± 0.54
20,CACCCACACCAACACACACACATATATAATATATAT [CACACA_site595],8.27 ± 0.44
21,CCATAATATTATAGACGTACGAATATATATAAAAGA [XGTACX_site7295],8.05 ± 0.44
22,GATTATTTTATAAGTACACACATTTATCTATAATAA [CACACA_site7256],8.17 ± 0.21
23,AATACATGCTTATTTTAACACACAAATGGTAGTAAT [CACACA_site8154],7.84 ± 0.63
24,CTTATATTTAGACACACACACAATAAAATGAAAAAA [CACACA_site1031],8.1 ± 0.49
